# Data: the antibiotic and cytotoxicity screens of Wong et al. (2023)
# This is one part of the list.
# How the values were obtained:
# HSkMC = human skeletal muscle cells; experiment: cytotoxicity call (relative viability < 0.9); settings: 10 µM
# HepG2 = experiment: cytotoxicity call (relative viability < 0.9); settings: 10 µM
# S. aureus RN4220 = experiment: growth inhibition call (relative growth <= 0.2); settings: 50 µM
Structure (SMILES),cytotoxicity call (HSkMC),cytotoxicity call (HepG2),growth inhibition call (S. aureus RN4220)
C[C@@H]1CN([C@H](C)CO)C(=O)Cc2cc(NC(=O)CCN3CCOCC3)ccc2O[C@H]1CN(C)Cc1ccccc1,inactive,inactive,inactive
C[C@@H]1CCCCO[C@H](CN(C)Cc2ccc(Cl)c(Cl)c2)[C@@H](C)CN([C@H](C)CO)C(=O)c2cc(NS(=O)(=O)c3ccc(Cl)cc3)ccc2O1,inactive,active,inactive
Cc1ccc(S(=O)(=O)N(C)C[C@H]2Oc3ccc(NS(=O)(=O)c4ccc(F)cc4)cc3CC(=O)N([C@H](C)CO)C[C@H]2C)cc1,inactive,inactive,inactive
